{"source": "PubChem BioAssay AID1346428", "about": "(National Center for Advancing Translational Sciences (NCATS), 2018)", "note": "Several values for one entry are separate records, joined by “and”; a condition that tells them apart may be missing. Equal values may be shown once. The campaign covered roughly 48,000 compounds. About 1,200 (2.5%) were called active. Another 2% or so got no clear call; they are omitted.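 How the source made its calls: active means activation of at least 60% and not above a set upper limit (about 1 call in 100 departs from these limits); inconclusive means activation of 40% to 60%, or above that upper limit; inactive means activation under 40%.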 The list shows a part of the results."}
{"target": "Probable G-protein coupled receptor 32 (Homo sapiens) (UniProt O75388)", "sequence (O75388 whole entry, looked up, the tested form may be a part)": "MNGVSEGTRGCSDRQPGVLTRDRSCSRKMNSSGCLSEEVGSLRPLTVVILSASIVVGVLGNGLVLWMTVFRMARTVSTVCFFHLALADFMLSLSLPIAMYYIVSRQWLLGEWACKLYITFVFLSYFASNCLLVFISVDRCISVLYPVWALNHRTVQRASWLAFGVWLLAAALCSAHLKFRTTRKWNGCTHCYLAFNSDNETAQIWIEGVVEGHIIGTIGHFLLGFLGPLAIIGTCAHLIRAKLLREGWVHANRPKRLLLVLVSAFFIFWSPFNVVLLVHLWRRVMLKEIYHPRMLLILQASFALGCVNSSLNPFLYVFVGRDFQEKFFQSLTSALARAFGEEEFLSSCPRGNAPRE", "assay": "qHTS for Agonists of Human Resolvin D1 Receptor DRV1; further: 0% is about no effect", "details": "CHO-K1 GPR32 beta-arrestin PathHunter luminescence, 90 min; at 76.9 µM; stronger effect = higher value; zero percent set by DMSO-only wells", "in_short": "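Agonism was scored by beta-Gal fragment complementation (chemiluminescent read, 1 h detection at ambient temperature) reporting beta-arrestin binding to GPR32 in engineered CHO-K1 cells. Compound treatment lasted 90 min at 37 C, normalized to a DMSO basal control.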"}
{"smiles": "CCOC(=O)c1ccc(N2CCN(c3ccc(F)cc3)CC2)c(NC(=O)Nc2cccc(OC)c2)c1", "activation": "inactive: -17.7%"}
{"smiles": "CCC(=O)N1CCc2cc(Br)cc(S(=O)(=O)CCC(=O)N3CCN(c4ccccc4OC)CC3)c21", "activation": "inactive: -4.97%"}
{"smiles": "COc1ccccc1N1CCN(S(=O)(=O)c2ccc3[nH]c4c(c3c2)CCCC4)CC1", "activation": "inactive: -5.6%"}
{"smiles": "CCOc1cc(-c2nnc(SCC(=O)NCc3ccccc3)nc2-c2ccc(OC)c(OCC)c2)ccc1OC", "activation": "inactive: -24%"}
{"smiles": "COc1ccc(/C=C\\c2onc(C)c2S(=O)(=O)N2CCC(C(=O)Nc3ccc(Cl)cc3)CC2)cc1", "activation": "inactive: -15.5%"}
{"smiles": "COc1ccc(C(=O)N2CC(=O)Nc3ccc(C)cc3C2c2ccccc2)c(OC)c1", "note": "(configuration not stated)", "activation": "inactive: -12.6%"}
{"smiles": "Cc1ccc(-n2ncc(C(=O)N3CCCCC3)c2C2CCN(C(=O)OC(C)(C)C)CC2)cc1C", "activation": "inactive: -3.98%"}
{"smiles": "CCc1ccc(NC(=O)C2CCCN(S(=O)(=O)c3ccc4c(c3)CCCN4C(C)=O)C2)cc1", "note": "(configuration not stated)", "activation": "inactive: -8.41%"}
{"smiles": "CC(=O)Nc1ccccc1OCc1cc(=O)n2c3c(sc2n1)CCCC3", "activation": "inactive: 4.31%"}
{"smiles": "Cn1c2ccccc2c2cnn(CC(=O)NCc3ccc(Cl)cc3)c(=O)c21", "activation": "inactive: -16.6%"}
{"smiles": "COc1ccc2[nH]c(=O)c(CN(C(=O)c3cccc(Cl)c3)c3ccccc3OC)cc2c1", "activation": "inactive: -15.1%"}
{"smiles": "CS(=O)(=O)N1CCc2cc(S(=O)(=O)NCc3ccccc3Cl)ccc21", "activation": "inactive: -2.78%"}
{"smiles": "COc1ccc(S(=O)(=O)NCCc2csc3nc(-c4ccc(Cl)cc4)nn23)cc1C", "activation": "inactive: 30.1%"}
{"smiles": "Cc1cccc(Cn2c(C)c(C)c3cc(C(=O)NCc4ccco4)ccc32)c1", "activation": "inactive: -23.5%"}
{"smiles": "Cn1cnc(S(=O)(=O)N2CCC(C(=O)NCc3ccccc3)CC2)c1", "activation": "inactive: -2.64%"}
{"smiles": "CC1=C(c2ccc(F)cc2)S(=O)(=O)N=C1N1CCC(C(=O)NCCc2ccco2)CC1", "activation": "inactive: -2.04%"}
{"smiles": "Cc1ccc(Sc2c(C)nn(C(=O)COc3ccccc3)c2C)cc1", "activation": "inactive: 18.3%"}
{"smiles": "COc1ccc(-c2nc(Cn3c(SCc4cccc(Cl)c4)nc4ccncc43)c(C)o2)cc1", "activation": "inactive: 7.23%"}
{"smiles": "Cc1cccc(-n2c(-c3ccco3)nc3c(cnn3-c3ccccc3C)c2=O)c1", "activation": "inactive: 11.6%"}
{"smiles": "Cc1ccc(C(c2sc3nc(-c4ccco4)nn3c2O)N2CCOCC2)cc1", "note": "(configuration not stated)", "activation": "inactive: 17.8%"}
{"smiles": "COc1ccccc1NC(=O)CSc1nc2ccccc2c(=O)n1CCC(=O)NC1CCCCC1", "activation": "inactive: 12.7%"}
{"smiles": "O=C(CN1CCN(Cc2ccc(F)cc2Cl)S1(=O)=O)Nc1ccc(F)cc1", "activation": "inactive: 5.22%"}
{"smiles": "CCOC(=O)c1c(S(=O)(=O)N2CCCC(C(=O)N(C)Cc3ccccc3)C2)c(C)n(C)c1C", "note": "(configuration not stated)", "activation": "inactive: 40.4%"}
{"smiles": "COc1cc(NC(=O)Cn2ccn(Cc3ccccc3OC)c(=O)c2=O)cc(OC)c1", "activation": "inactive: 2.76%"}
{"smiles": "COC(=O)c1cc2c(cc1NC(=O)c1c(C)nn(-c3ccc(C)cc3)c1-n1cccc1)OCO2", "activation": "inactive: -12.6%"}
{"smiles": "CCOc1ccc(NC(=O)Cn2c(=O)oc3cc(S(=O)(=O)NC4CCCC4)ccc32)cc1", "activation": "inactive: 17.3%"}
{"smiles": "Cc1ccc(NC(=O)Cn2c(C)cc(C)c(C#N)c2=O)cc1", "activation": "inactive: -6.79%"}
{"smiles": "CCN(CC)CCOC(=O)C1(C2CCCCC2)CCCCC1", "activation": "inactive: -9.58%"}
{"smiles": "CCCCOCCOCCOCc1cc2c(cc1CCC)OCO2", "activation": "inactive: 38.2% and inactive: -5.66%"}
{"smiles": "Cc1ccccc1NC(=O)C1CCC(CNS(=O)(=O)c2ccc3c(c2)C(C)(C)C(=O)N3C)CC1", "note": "(configuration not stated)", "activation": "inactive: -2.89%"}
{"smiles": "Oc1ccccc1", "activation": "inactive: 4.84%"}
{"smiles": "CCOc1ccc(CCNC(=O)c2cn(C)c3ccc(S(=O)(=O)N4CCOCC4)cc3c2=O)cc1OCC", "activation": "inactive: -8.16%"}
{"smiles": "Cc1cc(NS(=O)(=O)c2ccc(NC(=O)c3ccccc3F)cc2)nc(C)n1", "activation": "inactive: -33.4%"}
{"smiles": "Cc1ccc(-n2ncc3c(N(C)Cc4ccccc4)ncnc32)cc1", "activation": "inactive: 5.03%"}
{"smiles": "CCc1ccc(NC(=O)Cn2c(=O)n(Cc3nc(-c4ccccc4)no3)c(=O)c3cc4c(cc32)OCO4)cc1", "activation": "inactive: -0.032%"}
{"smiles": "COc1ccc(S(=O)(=O)N2CCC(c3ccncc3)CC2)cc1OC", "activation": "inactive: 7.95%"}
{"smiles": "O=C(c1ccco1)n1nc(-c2ccc(Cl)cc2)nc1NCc1ccccc1", "activation": "inactive: -7.92%"}
{"smiles": "Cc1ccc(N2C(=O)NC(NS(=O)(=O)c3ccc(Cl)cc3)(C(F)(F)F)C2=O)cc1C", "note": "(configuration not stated)", "activation": "inactive: 13.4%"}
{"smiles": "CCCC(=O)N1CC(=O)Nc2ccc(Cl)cc2C1c1ccccc1", "note": "(configuration not stated)", "activation": "inactive: -13.9%"}
{"smiles": "CCC(Sc1ncnc2sc3c(c12)CCCC3)C(=O)OC(C)C", "note": "(configuration not stated)", "activation": "inactive: -12.9%"}
{"smiles": "COc1ccc(S(=O)(=O)NCC(c2ccc(N(C)C)cc2)N2CCc3ccccc32)cc1", "note": "(configuration not stated)", "activation": "inactive: -19.5%"}
{"smiles": "Cc1cccc(C(=O)Nc2ccc(C(=O)OCc3cc(=O)n4nc(C5CC5)sc4n3)cc2)c1", "activation": "inactive: -5.91%"}
{"smiles": "COc1ccccc1N1CCN(C(=O)CCc2nnc3n(C)c(=O)c4sccc4n23)CC1", "activation": "inactive: 15.1%"}
{"smiles": "COCCNC(=O)CSc1cn(CC(=O)N2CCCCCC2)c2ccccc12", "activation": "inactive: -24.8%"}
{"smiles": "CCOc1ccc(OCC)c(NC(=O)C2CCN(S(=O)(=O)c3cn(C)cn3)CC2)c1", "activation": "inactive: -12.5%"}
{"smiles": "Cc1ccc(NC(=O)C2CCCN2S(=O)(=O)c2ccc3nc(-c4ccccc4)[nH]c3c2)cc1F", "note": "(configuration not stated)", "activation": "inactive: 47.1%"}
{"smiles": "Cc1ccc(C)c(CSc2ccc3nnc(CCNS(=O)(=O)c4ccccc4)n3n2)c1", "activation": "inactive: 2%"}
{"smiles": "COc1ccc(OC)c(Nc2ncnc3c2cnn3-c2cccc(Cl)c2)c1", "activation": "inactive: -4.11%"}
{"smiles": "Cc1ccn2c(Nc3ccc(F)cc3)c(-c3ccccn3)nc2c1", "activation": "inactive: -64.1%"}
{"smiles": "O=C(Cn1nc(-c2ccccc2)nc(Cc2ccccc2)c1=O)Nc1ccccc1", "activation": "inactive: -12.5%"}
{"smiles": "CCCCC(=O)OC1=C(C(C)=O)N(Cc2ccccc2)S(=O)(=O)c2ccccc21", "activation": "inactive: -7.4%"}
{"smiles": "CCOC(=O)c1cccc(NC(=O)CCc2c(C)nn(-c3ccc(N4CCCC4)nn3)c2C)c1", "activation": "inactive: -7.27%"}
{"smiles": "Cc1ccc(OCC(=O)NCC2(N3CCOCC3)CCCCC2)cc1C", "activation": "inactive: -22%"}
{"smiles": "Cc1ccc(-c2nc3ccccc3s2)cc1NC(=O)COc1ccccc1", "activation": "inactive: 17.7%"}
{"smiles": "CCOc1ccc(/C=C/c2nc(C#N)c(N3CCCCC3)o2)cc1", "activation": "inactive: -18.8%"}
{"smiles": "CCCN(CCC)CCNC(=O)CN1C(=O)COc2ccc(S(=O)(=O)N3CCC(C)CC3)cc21", "activation": "inactive: -7.14%"}
{"smiles": "CCCCN(CCCC)CCNC(=O)c1cn(CC)c2ccc(S(=O)(=O)N3CCc4ccccc4C3)cc2c1=O", "activation": "inactive: 12.1%"}
{"smiles": "Cc1oc(-c2cccc(Cl)c2)nc1CN1CCC(C(=O)NCCCN2CCN(c3ccccc3F)CC2)CC1", "activation": "inactive: -4.44%"}
{"smiles": "CCOC(=O)CSc1nc2c([nH]c3ccccc32)c(=O)n1-c1ccc(OC)cc1", "activation": "inactive: -16.8%"}
{"smiles": "CCOC(=O)Cn1nc(-c2ccccc2)c2cnc3ccc(OCC)cc3c21", "activation": "inactive: -7.6%"}
{"smiles": "O=C(CN(CCc1ccccc1)S(=O)(=O)c1ccc(Br)cc1)NCc1ccc(Cl)cc1", "activation": "inactive: -5%"}
{"smiles": "CCC1CN(C(=O)C2CCN(S(=O)(=O)c3c(C)noc3/C=C/c3ccccc3F)CC2)c2cc(Cl)ccc2O1", "note": "(configuration not stated)", "activation": "inactive: -23.8%"}
{"smiles": "COc1ccc(N(Cc2cccs2)C(=O)c2ccc(Br)o2)cc1", "activation": "inactive: -30.7%"}
{"smiles": "COc1ccc(NC(=O)C2CCCN(S(=O)(=O)c3ccc4c(c3)CCCC(=O)N4)C2)cc1OC", "note": "(configuration not stated)", "activation": "active: 63.4%"}
{"smiles": "Cc1ccc2c(=O)cc(C(=O)Nc3ccc(S(=O)(=O)Nc4nc(C)cc(C)n4)cc3)oc2c1", "activation": "inactive: -8.46%"}
{"smiles": "CCc1ccc(NC(=O)CSC2=Nc3ccccc3C3=NC(CC(=O)NC4CCCCC4)C(=O)N23)cc1", "note": "(configuration not stated)", "activation": "inactive: -6.13%"}
{"smiles": "CCCOC(=O)c1ccccc1", "activation": "inactive: 47.7%"}
{"smiles": "CCOc1cc(C2C(C(=O)Nc3ccc(OC)cc3)=C(C)Nc3nc(SC)nn32)ccc1O", "note": "(configuration not stated)", "activation": "inactive: -19.7%"}
{"smiles": "O=C(C1CCN(c2ncnc3c2nc2n3CCCCC2)CC1)N1CCN(c2ccc(F)cc2)CC1", "activation": "inactive: -4.19%"}
{"smiles": "CC(C)CC(=O)Nc1ccc2nc(SCC(=O)N3CCCC3)sc2c1", "activation": "inactive: -1.24%"}
{"smiles": "COc1ccc(NC(=O)N2CCc3c(sc4c3CCCC4)C2c2ccccc2OC)cc1", "note": "(configuration not stated)", "activation": "inactive: -16.2%"}
{"smiles": "CCOC(=O)c1c(C)sc(-c2c(-c3cc(C)ccc3C)[nH]c3c2c(=O)n(C)c(=O)n3C)c1O", "activation": "inactive: -39.6%"}
{"smiles": "Cc1ccc(NC(=O)CCn2nc(C)c(S(=O)(=O)N3CCCCC3)c2C)cc1Cl", "activation": "inactive: 3.6%"}
{"smiles": "CCOc1ccc(N(CC(=O)Nc2cc(C)ccc2C)S(=O)(=O)c2c(C)[nH]c(=O)[nH]c2=O)cc1", "activation": "inactive: -2.75%"}
{"smiles": "CCN(c1ccc(C)cc1)S(=O)(=O)c1nnc(NC(=O)C2CCCCC2)s1", "activation": "inactive: -24.6%"}
{"smiles": "CCCNC(=O)CSc1nc2ccccc2nc1Cc1ccc(Cl)cc1", "activation": "inactive: -1.35%"}
{"smiles": "Cc1ccc(C)c(CN2C(=O)c3ccccc3S(=O)(=O)c3ccc(C(=O)N4CCc5ccccc54)cc32)c1", "activation": "inactive: -25.9%"}
{"smiles": "Cc1ccc(OCC(=O)NCC(c2ccc(Cl)cc2)N2CCCCC2)cc1", "note": "(configuration not stated)", "activation": "inactive: -12.2%"}
{"smiles": "CCC1=Nc2cc(C(=O)NCC(C)c3ccccc3)ccc2Sc2ccc(C)cc21", "note": "(configuration not stated)", "activation": "inactive: -25.1%"}
{"smiles": "Cc1ccc(CCNC(=O)c2cn(C)c3ccc(S(=O)(=O)N(C)C4CCCCC4)cc3c2=O)cc1", "activation": "inactive: -8.65%"}
{"smiles": "COc1ccc(-n2c(C)c(C(C)=O)c3cc(OC(=O)c4ccc(C)cc4)ccc32)cc1", "activation": "inactive: 9.77%"}
{"smiles": "CCOC(=O)c1ccc(OCC2c3cc(OC)c(OC)cc3CCN2C(=O)c2ccc(S(=O)(=O)N3CCCC3)cc2)cc1", "note": "(configuration not stated)", "activation": "inactive: -2.78%"}
